In PubChem BioAssay AID686970 (National Center for Advancing Translational Sciences (NCATS), 2013):
About 6,000 (1.7%) of roughly 360,000 compounds were called active. The shares of active, inactive and inconclusive entries below differ from those in the screen. Calls come from the whole dose curve; as a rule, active = well fitted cell-killing curve with a large enough effect; inconclusive = small, poorly fitted or top-dose-only effect, or effect the other way; inactive = flat fitted curve, though single readings scatter. Potencies of inconclusive entries are left out as doubtful fits.

Assay: qHTS for induction of synthetic lethality in tumor cells producing 2HG: qHTS for the HT-1080-NT fibrosarcoma cell line;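 note: NT is the 2HG producing partner of a matched IDH1 knockdown line; nearly all actives have a fitted effect of over 55% in size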;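 for activity, negative = less viability: 0% = DMSO-treated cells and -100% = media-only wells without cells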
Details: HT-1080-NT fibrosarcoma viability, CellTiter-Glo ATP luminescence, 48 h; activity, negative = less viability: at 46.1 µM (top of the series) unless noted
Outline: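 Luminescent CellTiter-Glo readout after 48 hours of compound exposure at 37 degrees C defined viability of HT-1080-NT cells. Activity was normalized to DMSO wells and cell-free media wells; concentration-response curves were fitted and assigned curve classes.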
Potency is the fitted concentration of half-maximal effect; tags give direction and shape of the fitted curve.

With `COc1ccc(-c2nc(CN3CCN(c4cc(C)nc(C)c4)CC3)c(C)o2)c2ccccc12` as the compound, how does the Potency read?
Its Potency is active: 13 µM.

For `Cc1cc(NC(=S)NC(=O)c2ccccc2)ccc1-c1cc2ccccc2oc1=O`, which activity, negative = less viability is on record?
The activity, negative = less viability was inconclusive: -9.42% [cytotoxic].

Which “activity, negative = less viability” value does the source give for `NCCCn1c(C(=O)c2cc(Cl)c(N)c(Cl)c2)c2ccc(C(F)(F)F)cc2[n+]1[O-]` here?
Its value is inactive: -6.46%.

With `COc1cc(NC(=O)c2[nH]cnc2C(N)=O)cc(C(=O)Nc2cccc(C(F)(F)F)c2)c1` as the compound, how does the Potency read?
The Potency was active: 18.4 µM.

Which Potency does the source give for `O=C(Oc1ccccc1)c1cccc2cccnc12` here?
Its Potency is active: 3.98 µM.

With `C=C(C)COc1ccc(-c2nc(N)ncc2-c2ccc(Cl)cc2)c(O)c1` as the compound, how does the Potency read?
Its Potency is inconclusive [cytotoxic, single point].

For `Cc1ccc(-c2nnc(SCC(=O)Nc3ccccc3N3CCOCC3)o2)cc1`, which “activity, negative = less viability” value is on record?
Its value is inactive: 8.53%.

Which activity, negative = less viability does the source give for `Cc1c(C(=O)N2CCCc3ccccc32)oc2ccc(S(=O)(=O)N3CCOCC3)cc12` here?
The activity, negative = less viability was inconclusive: -39.1% [cytotoxic].

With `CCC(C)N(C(=O)COC(=O)CNC(=O)c1sc2ccccc2c1Cl)C1CCS(=O)(=O)C1` (stereo unspecified) as the compound, how does the “activity, negative = less viability” value read?
The value was inactive: 1.24%.

With `CC1CCN(c2nc(-c3cccnc3)nc3scc(-c4ccccc4)c23)CC1` as the compound, how does the “activity, negative = less viability” value read?
The value was inactive: -10.1%.

Which Potency does the source give for `O=C(Nc1ncc(Cc2cccc(Cl)c2)s1)c1cccs1` here?
Its Potency is inconclusive [cytotoxic, partial curve].

With `COc1cc(C(=O)Oc2cccc(/C=N/NC(=O)c3cccnc3)c2)cc(OC)c1OC` as the compound, how does the Potency read?
Its Potency is inconclusive [cytotoxic, partial curve, poor fit].

Which Potency does the source give for `CCn1c(=O)c(C(=O)NNC(=O)c2cccc(Cl)c2)c(O)c2ccccc21` here?
Its Potency is active: 13 µM.

For `CS(=O)(=O)c1ccc(Nc2nc(C(N)CCc3ccccc3)cs2)cc1` (stereo unspecified), which Potency is on record?
Its Potency is inconclusive [cytotoxic, single point].

With `O=C(NC(NCc1ccccn1)(C(F)(F)F)C(F)(F)F)c1ccco1` as the compound, how does the Potency read?
Its Potency is inconclusive [cytotoxic, single point].

With `CN1CCc2c(sc(NC(=O)c3ccc([N+](=O)[O-])o3)c2C(N)=O)C1` as the compound, how does the Potency read?
The Potency was active: 6.51 µM.

With `CS(=O)(=O)c1ccc(Nc2nc(C(N)Cc3ccc(C(F)(F)F)cc3)cs2)cc1` (stereo unspecified) as the compound, how does the Potency read?
The Potency was active: 18.4 µM.

Which Potency does the source give for `CC(=O)Nc1cc(-c2ccccc2F)cn2c(-c3cccc(C(F)(F)F)c3)cnc12` here?
Its Potency is inconclusive [cytotoxic, single point].

Which Potency does the source give for `O=S(=O)(NCc1ccc2c(c1)OCO2)c1ccc2c(c1)oc1ccccc12` here?
Its Potency is inconclusive [cytotoxic, single point].

Which Potency does the source give for `COc1ccccc1Oc1nc(-c2ccccc2)cc(C)c1S(C)(=O)=O` here?
Its Potency is inconclusive [cytotoxic, single point].

Which “activity, negative = less viability” value does the source give for `CCC(Oc1ccccc1)C(=O)Nc1ccccc1N1CCCC1` (stereo unspecified) here?
Its value is inactive: -3.77%.

For `Cn1c(SCC(=O)Nc2ccc(Cl)cc2F)nnc1-c1ccco1`, which “activity, negative = less viability” value is on record?
Its value is inactive: 18.7%.

With `Cc1cccc2sc(NNC(=O)c3cc(-c4cccs4)nc4ccccc34)nc12` as the compound, how does the Potency read?
The Potency was inconclusive [cytotoxic, partial curve].

For `N#C/C(=C\c1ccc(O)c(O)c1)C(=O)N1CCc2ccccc21`, which Potency is on record?
Its Potency is inconclusive [cytotoxic, single point].

With `O=C(NCC1CCCCC1)c1cccc(-c2ccc(O)cc2)c1` as the compound, how does the Potency read?
The Potency was inconclusive [cytotoxic, single point].

Which “activity, negative = less viability” value does the source give for `CC1(C)SC(C)(C)N(C=O)C1C(=O)O` (stereo unspecified) here?
The value was inactive: 8.42%.

For `C(=C\c1ccccc1)/CN1CCN(C(c2nnnn2Cc2ccccc2)C2CC2)CC1` (stereo unspecified), which Potency is on record?
Its Potency is active: 18.4 µM.

For `CCc1ccc(CN(C)C(=O)c2cc(COc3cccc4cnccc34)on2)cc1`, which Potency is on record?
Its Potency is inconclusive [cytotoxic, single point].

Which Potency does the source give for `OCC[C@H]1C[C@H](O)[C@@H](O)[C@@]2(OCCCc3ccccc32)O1` here?
Its Potency is inconclusive [rising, single point].

Which Potency does the source give for `Cc1ccc(-c2nn(-c3ccccc3)cc2/C=C/C(=O)Nc2nccs2)cc1` here?
Its Potency is active: 16.4 µM.

With `CC[C@@]1(C(=O)OC)N[C@H](CN(C)C(=O)c2ccc(C)cc2)[C@@H]2C(=O)N(C)C(=O)[C@@H]21` as the compound, how does the “activity, negative = less viability” value read?
Its value is inactive: 13.9%.

Which “activity, negative = less viability” value does the source give for `Cc1ccc2[nH]c(=O)c3cc(C(=O)N(C)c4ccc(C)c(C)c4)sc3c2c1` here?
The value was inactive: 6.47%.

Which activity, negative = less viability does the source give for `CCN1CCN(CCCNC(=O)CS(=O)(=O)Cc2nc(-c3ccccc3C)oc2C)CC1` here?
The activity, negative = less viability was inconclusive: -4.96%.

Which “activity, negative = less viability” value does the source give for `O=C(Nc1ccnn1C1CCN(Cc2ccc(CO)o2)CC1)c1ccccc1` here?
The value was inactive: -11%.

With `O=C(N[C@@H](Cc1ccccc1)C(=O)N1CCC2(CC1)NCCc1[nH]cnc12)c1cccc(F)c1` as the compound, how does the Potency read?
The Potency was inconclusive [cytotoxic, single point].

For `Cc1ccccc1Nc1c(N)c(=O)oc2ccccc12`, which activity, negative = less viability is on record?
The activity, negative = less viability was inconclusive: -33.2% [cytotoxic].

For `CCCn1nnc(NC(=O)c2cccc(OCC(C)C)c2)n1`, which activity, negative = less viability is on record?
The activity, negative = less viability was inconclusive: 8.47%.

With `CN1c2ccccc2C(C)(C)C12CCCC(=O)N2` (stereo unspecified) as the compound, how does the “activity, negative = less viability” value read?
The value was inactive: -5.8%.

With `CC(C)CNC(=O)c1ccccc1NC(=O)/C=C/c1cccc([N+](=O)[O-])c1` as the compound, how does the Potency read?
Its Potency is inconclusive [rising, single point].

Which Potency does the source give for `Oc1ccc(C[C@H]2CNC(=S)N2CC2CCCN2C[C@H](Cc2ccccc2)N2C[C@H](Cc3ccc(O)cc3)N(CC3CCCCC3)C2=S)cc1` (stereo partly specified) here?
Its Potency is inconclusive [cytotoxic, single point].

With `CC1CCN(c2nc(-c3ccncc3)nc3ccccc23)CC1` as the compound, how does the Potency read?
The Potency was inconclusive [cytotoxic, single point].

Which Potency does the source give for `CCOC(=O)C(=CNc1cc(Cl)c(-c2ccco2)c(Cl)c1)C(=O)OCC` here?
Its Potency is inconclusive [cytotoxic, single point].

With `O=C(CSc1nc2cc3ccccc3cc2[nH]1)Nc1ccc(F)cc1` as the compound, how does the Potency read?
The Potency was inconclusive [cytotoxic, single point].

With `Cc1ccc2c(C)c(C(=O)N(C)C(C)c3ccncn3)oc2c1C` (stereo unspecified) as the compound, how does the “activity, negative = less viability” value read?
The value was inactive: 0.791%.

For `COCCNC(=S)N(CCc1c(C)[nH]c2ccc(F)cc12)Cc1cccs1`, which Potency is on record?
The Potency was inconclusive [cytotoxic, single point].

With `COC(=O)C1Cc2ccccc2CN1C(=O)CCl` (stereo unspecified) as the compound, how does the Potency read?
Its Potency is active: 8.2 µM.
